Read counts are not given, so values of variants with three or more changes are uncertain.
B1: LINE1-mini (parent)
chain: GGCAGAGCUCAACACAGCGUGGCAAAGUGGCUGUGGCUAGACUGCC

Variants of: B1
Assay: self-cleavage, relative activity (ratio to wild type); higher = more cleavage; in vitro, sequencing; the parent is a self-cleaving ribozyme

Row | Variant | self-cleavage
1 | GGCAGAGCUCAACACAGCGUGGUAAAGUGGCUUUGGCUAUACUGCC | 0.03
2 | GGCAGAGCUCAACACAGCGUGGCUAAGUGGCUGUGGCUAGAUUGCG | 0.04
3 | GGCAGAGCUCAACACAGCGUGGCUAUGUGGCUGUGGCUACACUGCU | 0.18
4 | GGCAGAGCUCAACACAGCGUGGUAAAGUGGUUGUGCCUCAACUACC | 0.03
5 | GGCAGAGCUCAACACAGCGUGGCGAAAUGGCUGUGGCUUGACUGCC | 0.45
6 | GGCAGAGCUCAACACAGCGUGGUAAAAUGGCUCUGGCUAGACUGCC | 0.11
7 | GGCAGAGCUCAACACAGCGUGGCGGAGUGGCUGGGGUUAGACUGCC | 0.02
8 | GGCAGAGCUCAACACAGCGUGGCCAAGUGGCUGUGGCUAGUCAGCC | 0.07
9 | GGCAGAGCUCAACACAGCGUGGCCAAUUGGCUGUGGCUAGACCGCC | 0.09
10 | GGCAGAGCUCAACACAGCGUGGCACCUUGGCUGUGGCUAGACUGCA | 0.87
11 | GGCAGAGCUCAACACAGCGUGGCACAGUGGCUGUGGCUGGAAUGCC | 0.19
12 | GGCAGAGCUCAACACAGCGUGGCGAGGUGGCUGUGGCUACAAUGCC | 0.04
13 | GGCAGAGCUCAACACAGCGUGGUAAAGUGGCUGUGGCAAGAAUGCC | 0.22
14 | GGCAGAGCUCAACACAGCGUGGCUUAGUGGCUGUGGCUAGACUGAC | 0.85
15 | GGCAGAGCUCAACACAGCGUGGCGUAGUGGUUGAGGCUAGACUGCC | 0.03
16 | GGCAGAGCUCAACACAGCGUGGUAAAGUGUUCGUGGCUAGUCAGCC | 0.1
17 | GGCAGAGCUCAACACAGCGUGGUAAAGUGGCUCUGGCUAGACUGUC | 0.03
18 | GGCAGAGCUCAACACAGCGUGGCUAAGUGGAUGUGGCUAGACAGCC | 0.06
19 | GGCAGAGCUCAACACAGCGUGGUAAAGUGUCUGUGGCCAGACUGCC | 0.1

Row | Variant | self-cleavage
20 | GGCAGAGCUCAACACAGCGUGGCUAAGUGGCUGUGGCCAGACUACC | 0.02
21 | GGCAGAGCUCAACACAGCGUGGUAAAGUGGCUGUGGCUAGACAGGC | 0.04
22 | GGCAGAGCUCAACACAGCGUGGCGAAGUGACAUUGGCUAGACUGCC | 0.03
23 | GGCAGAGCUCAACACAGCGUGGCCAGGUGGCUGUGGCUAGACUACC | 0
24 | GGCAGAGCUCAACACAGCGUGGCGAAGCGGCUGUGGCUAGACUGUC | 2.3
25 | GGCAGAGCUCAACACAGCGUGGCCAAGUGACUGUUGCUAGACUGCC | 0.15
26 | GGCAGAGCUCAACACAGCGUGGCUAAGUGGCUGUGGCCUGAUUGCC | 0.08
27 | GGCAGAGCUCAACACAGCGUGGCCUAGAGAAUGUGGCUAGACUGCC | 0.04
28 | GGCAGAGCUCAACACAGCGUGGCCAAGUGGCUGUGGAUAGACUGUC | 0.13
29 | GGCAGAGCUCAACACAGCGUGGUAAGGUGGCUGUGGCCAGACUUCC | 0.07
30 | GGCAGAGCUCAACACAGCGUGGCGAAGUGGCUGUGGUUACACUGCC | 0.27
31 | GGCAGAGCUCAACACAGCGUGGUAACGUGGCUGUGGCUACACUCCC | 0.08
32 | GGCAGAGCUCAACACAGCGUGGCUAAGUGGCUGUGGCUAGAGUGCA | 0.03
33 | GGCAGAGCUCAACACAGCGUGGCUAAGUGGCUGUGGCUAAACUGUC | 0.07
34 | GGCAGAGCUCAACACAGCGUGGUAAAGUGGCUCUGGCUAGGCUGCC | 0.04
35 | GGCAGAGCUCAACACAGCGUGGCUAAGUGGAUCUGGCUAGACUGCC | 0.04
36 | GGCAGAGCUCAACACAGCGUGGCUAAGUGACUGUGGCUAGACUUGU | 0.12
37 | GGCAGAGCUCAACACAGCGUGGCUAAGUAGCUGUGGCUAGACUGCU | 0.62
38 | GGCAGAGCUCAACACAGCGUGGCUAAGUGGCUGUGUUUAGACUGCC | 0.06

Row | Variant | self-cleavage
39 | GGCAGAGCUCAACACAGCGUGGCGAAGCGGCUGUGGCUAGUCAGCC | 0.08
40 | GGCAGAGCUCAACACAGCGUGGUAAAGUGGCUAUUUCUAGCCUUAC | 0.01
41 | GGCAGAGCUCAACACAGCGUGGUAAAGUGGCUGUGGGUAGACCGCC | 0.83
42 | GGCAGAGCUCAACACAGCGUGGCCAAAUGGGUGUGGCUAGAUUGCC | 0.05
43 | GGCAGAGCUCAACACAGCGUGGCACAGUGGAUGUGGCUAGACGGCC | 0
44 | GGCAGAGCUCAACACAGCGUGGCUAAGUGGCUGCGGCUAGGCUAGC | 0
45 | GGCAGAGCUCAACACAGCGUGGUAAAGAGGGUGUGGCUAGACUGAC | 0.06
46 | GGCAGAGCUCAACACAGCGUGGUAAAGUGGAUGUGACUAGACUGCC | 0.12
47 | GGCAGAGCUCAACACAGCGUGGCGAAGUGGCUUUGGCUCAACUGCC | 0.04
48 | GGCAGAGCUCAACACAGCGUGGUAAAAUGGCUGAGGCUAGACUGCC | 0.16
49 | GGCAGAGCUCAACACAGCGUGGCGAGGUGGCUGUGGAUAGCCUGCC | 0.02
50 | GGCAGAGCUCAACACAGCGUGGUAAAUUGGCUGUGGCUAGACCGCC | 0.16
51 | GGCAGAGCUCAACACAGCGUGGCGAAGUGGCAGGGGCUAGACUGGC | 0
52 | GGCAGAGCUCAACACAGCGUGGCUAAGUGGGUGUGGCUAGACUGAC | 0.07
53 | GGCAGAGCUCAACACAGCGUGGUAAAGCGGCUGUGGCUAUACUGCC | 0.03
54 | GGCAGAGCUCAACACAGCGUGGCCAAGUGGCUGGGGCUAGACAGCC | 0.03
55 | GGCAGAGCUCAACACAGCGUGGCGACGUGGCUGUGGCUAGGCUGCC | 0.15
56 | GGCAGAGCUCAACACAGCGUGGCCAAGUUGCUGUGGCUAAACCGCC | 0.05
